Source: PubChem BioAssay AID504332 (National Center for Advancing Translational Sciences (NCATS), 2011)
Hit rate of the full screen: of about 350,000 compounds, about 31,000 (8.9%) were called active. The shares of active, inactive and inconclusive entries below differ from those in the screen. The call rests on the fitted dose curve; in most records, active means well fitted inhibition curve with a large enough effect; inconclusive means small, poorly fitted or top-dose-only effect; inactive means no such curve, though single readings can be large or run the other way. Potencies of inconclusive entries are doubtful fits and often do not repeat.

Target: Histone-lysine N-methyltransferase EHMT2 (Homo sapiens) (UniProt Q96KQ7)
Chain of UniProt Q96KQ7 (Q96KQ7 whole entry, looked up): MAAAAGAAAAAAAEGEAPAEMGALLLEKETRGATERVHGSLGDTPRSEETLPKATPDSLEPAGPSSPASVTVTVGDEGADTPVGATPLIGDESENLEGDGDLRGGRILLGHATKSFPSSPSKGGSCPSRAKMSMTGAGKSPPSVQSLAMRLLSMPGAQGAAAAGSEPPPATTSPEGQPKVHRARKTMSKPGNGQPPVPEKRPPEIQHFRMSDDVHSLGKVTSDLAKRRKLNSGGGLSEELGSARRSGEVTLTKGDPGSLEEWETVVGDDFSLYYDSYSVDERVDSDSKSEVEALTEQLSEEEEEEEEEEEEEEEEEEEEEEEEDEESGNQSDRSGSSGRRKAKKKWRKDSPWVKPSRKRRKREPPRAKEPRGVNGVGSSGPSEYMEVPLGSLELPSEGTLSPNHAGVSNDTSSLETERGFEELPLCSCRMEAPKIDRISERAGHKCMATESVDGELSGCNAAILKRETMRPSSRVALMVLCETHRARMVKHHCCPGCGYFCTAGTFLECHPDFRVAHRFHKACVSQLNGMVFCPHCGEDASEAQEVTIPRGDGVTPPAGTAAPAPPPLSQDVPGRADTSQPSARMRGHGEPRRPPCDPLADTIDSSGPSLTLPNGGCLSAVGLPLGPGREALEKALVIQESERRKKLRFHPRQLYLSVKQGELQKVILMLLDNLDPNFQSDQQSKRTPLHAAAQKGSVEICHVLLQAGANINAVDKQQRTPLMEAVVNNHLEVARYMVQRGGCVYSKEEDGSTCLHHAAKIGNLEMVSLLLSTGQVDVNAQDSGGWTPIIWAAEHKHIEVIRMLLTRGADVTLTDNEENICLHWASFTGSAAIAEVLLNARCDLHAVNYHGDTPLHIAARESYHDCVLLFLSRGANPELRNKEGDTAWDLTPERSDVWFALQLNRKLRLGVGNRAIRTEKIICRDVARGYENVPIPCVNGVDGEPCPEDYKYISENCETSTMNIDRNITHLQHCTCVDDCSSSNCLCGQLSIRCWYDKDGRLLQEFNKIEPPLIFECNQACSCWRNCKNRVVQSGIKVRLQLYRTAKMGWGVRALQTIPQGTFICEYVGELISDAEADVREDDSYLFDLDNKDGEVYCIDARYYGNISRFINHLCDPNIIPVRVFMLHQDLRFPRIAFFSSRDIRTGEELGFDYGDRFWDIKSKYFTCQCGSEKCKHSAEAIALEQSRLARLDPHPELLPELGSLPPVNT
Assay: qHTS Assay for Inhibitors of Histone Lysine Methyltransferase G9a; further: nearly all actives have a fitted effect of over 75% in size
Conditions: G9a H3K9 monomethylation, AlphaScreen, 2 h; activity, negative = inhibition: at 59 µM (top of the series) unless noted
Procedure, shortened: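 Step 1: enzyme (final 20 nM) with compound, 15 min RT. Step 2: substrate peptide 500 nM and SAM 20 uM, 2 h RT. Step 3: anti-H3K9me1 antibody and AlphaScreen beads, 10 min, then plate read.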
On the % scale 0 is the no-effect control and ±100 the full control effect; potency means the concentration at half of the fitted maximal effect; tags describe the fitted curve by direction and shape.

SMILES | Potency | activity, negative = inhibition
CCN(CC)S(=O)(=O)c1ccc(OC)c(NC(=O)c2ccc(N3CCCC3=O)cc2)c1 | inactive | –
Oc1c(C(c2ccccc2F)N2CCCC2)sc2nc(-c3ccco3)nn12 (stereo not given) | inactive | –
CCCSc1nnc2c(n1)OC(c1cccs1)Nc1ccc(Br)cc1-2 (stereo not given) | inconclusive: 5.62 µM [inhibitor, full curve, poor fit] | –
CCNC(=O)c1ccc2c(c1)S(=O)(=O)c1ccccc1C2=O | inconclusive: 50.1 µM [inhibitor, partial curve] | –
COc1ccc(-c2nc(CN3CCC(c4ccccc4)CC3)c(C)o2)cc1OC | inconclusive: 39.8 µM [inhibitor, partial curve, poor fit] | –
CC(OC(=O)CCCOc1ccccc1)C(=O)Nc1ccc(Cl)cn1 (stereo not given) | inactive | –
CNC(=O)c1c(NC(=O)c2ccc(S(=O)(=O)N(C)c3ccccc3)cc2)sc2c1CCN(C(C)C)C2 | inconclusive: 79.4 µM [inhibitor, partial curve] | –
COc1ccc(CNC(=O)COC(=O)CCC(=O)c2cccs2)cc1 | inactive | –
O=C1NN(c2ccccc2)C(=O)/C1=C/c1ccc(Sc2ccc(Cl)cc2)o1 | – | inconclusive: -68.7% [inhibitor]
Cc1ccc(C)c(OCC(=O)N(Cc2nnc(-c3ccccc3Cl)o2)C2CC2)c1 | inconclusive: 89.1 µM [inhibitor, single point] | –
CCOc1ccc(NC(=O)C(C)n2c(=O)cc(C)c3c(C)nn(-c4ccccc4)c32)cc1 (stereo not given) | inactive | –
CC(C)(C)c1ccc(C(=O)N/N=C/c2ccc(OCCCF)cc2)cc1 | inactive | –
COc1ccccc1O | inconclusive: 22.4 µM [inhibitor, single point] | –
CC1=Nc2ncnn2C(c2ccccc2)/C1=N\O (stereo not given) | active: 50.1 µM | –
O=C(N=C1SC2CS(=O)(=O)CC2N1c1cccc(Cl)c1Cl)C1CCCO1 (stereo not given) | inconclusive: 89.1 µM [inhibitor, single point] | –
COc1cccc2cc(-c3nc4ccccc4[nH]3)c(=O)oc12 | inconclusive: 100 µM [inhibitor, single point] | –
CNC(=O)C1CCN(S(=O)(=O)c2c(C)noc2/C=C/c2ccccc2F)CC1 | – | inactive: -9.11% [at 12.7 µM]
COc1ccc(-c2noc(CSc3nnc(C)n3-c3ccc(C)c(C)c3)n2)c(OC)c1 | inactive | –
COc1cc(/C=c2/sc3nc(-c4ccccc4)c(-c4ccccc4)n3c2=O)cc(OC)c1OC | inconclusive: 39.8 µM [inhibitor, single point] | –
CCOC(=O)/C(C#N)=N/Nc1ccccc1C#N | inconclusive: 89.1 µM [inhibitor, single point] | –
